Test results from PubChem BioAssay AID1159614 (National Center for Advancing Translational Sciences (NCATS), 2016).
About 65 (0.1%) of roughly 45,000 compounds were called active. Calls come from the whole dose curve; as a rule, active = well fitted activation curve with a large enough effect; inconclusive = small, poorly fitted or top-dose-only effect; inactive = no such curve, though single readings can be large or run the other way. Some of the results follow.

Biological target: Galactocerebrosidase (Homo sapiens) (UniProt P54803)
Assay: A Novel Cell-Based Assay to Identify Small Molecules for B -Galactocerebrosidase; note: 0% is about no effect; nearly all actives have a fitted effect of over 65% in size
Conditions: 145M-Twi-hGALC-G270D cells, HMU-beta-Gal fluorescence, 48 h; series mostly up to 57.5 µM; activation: at the top concentration
Procedure, shortened: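 qHTS, 1536-well; 145M-Twi-hGALC-G270D cells (WT line also made) in DMEM/F12 + 10% FBS; compound incubation on live cells; HMU-β-gal 0.1 mM final, pH 5.2, NaTC; carbonate stop; fluorescence increase = enhanced residual activity.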

UniProt P54803, sequence (P54803 whole entry, looked up): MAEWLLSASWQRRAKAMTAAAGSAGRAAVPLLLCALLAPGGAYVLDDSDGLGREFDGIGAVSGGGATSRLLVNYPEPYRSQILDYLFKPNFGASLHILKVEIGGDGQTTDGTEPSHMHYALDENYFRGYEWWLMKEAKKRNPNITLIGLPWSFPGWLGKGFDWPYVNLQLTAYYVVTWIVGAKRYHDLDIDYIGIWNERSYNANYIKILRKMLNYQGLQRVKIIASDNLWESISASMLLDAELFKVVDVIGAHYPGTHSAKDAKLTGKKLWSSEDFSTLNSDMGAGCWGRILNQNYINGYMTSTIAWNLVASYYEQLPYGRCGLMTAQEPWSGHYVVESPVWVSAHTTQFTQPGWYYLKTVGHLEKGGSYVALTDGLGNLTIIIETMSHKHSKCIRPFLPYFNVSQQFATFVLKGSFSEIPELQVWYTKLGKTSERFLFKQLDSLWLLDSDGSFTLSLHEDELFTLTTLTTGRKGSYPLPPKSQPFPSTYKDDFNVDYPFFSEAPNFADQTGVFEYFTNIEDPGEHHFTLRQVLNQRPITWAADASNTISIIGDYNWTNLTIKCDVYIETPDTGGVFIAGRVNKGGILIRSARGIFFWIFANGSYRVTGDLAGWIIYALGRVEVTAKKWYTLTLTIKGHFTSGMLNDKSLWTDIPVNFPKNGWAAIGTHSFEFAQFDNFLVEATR

activation, inactive:
COCc1nc2ccccc2n1Cc1cccc(C)c1 -15.5%
CCn1c(=O)c2sccc2n2c(CCC(=O)Nc3ccc(OC)cc3OC)nnc12 -10.7%
CCc1ccccc1NC(=O)CN1C(=O)c2cccnc2Sc2ccccc21 4.81%
CCCCOc1ccc(CNC(=O)C2CCCN(c3nnc(-n4c(C)ccc4C)s3)C2)cc1 (stereo not drawn) -5.21%
COc1cc(C(=O)N2CCC(c3nc4ccccc4s3)CC2)cc(OC)c1OC -18.1%
COc1ccc(C2=C(C)C(=NCc3ccc(OC(C)C)cc3)NS2(=O)=O)cc1 -20%
Cc1ccc2c(c1)sc1nc(=O)n(-c3ccc(Cl)c(Cl)c3)c(=O)n12 -18.2%
CCc1ccc(-c2cc(C)no2)cc1S(=O)(=O)Nc1cc(OC)c(OC)c(OC)c1 -12.1%
Cc1ccc(S(=O)(=O)N2CCN(Cc3ccc4c(c3)OCO4)CC2)cc1 -14.4%
CCn1c(=O)cc(OCC(=O)N2CCN(c3cccc(Cl)c3)CC2)c2ccccc21 -11.3%
CNC(=O)c1cc(Oc2ccc(NC(=O)Nc3ccc(Cl)c(C(F)(F)F)c3)cc2)ccn1 -20.3%
CCNc1ccc(-c2nc(-c3ccncc3)no2)cc1[N+](=O)[O-] 1.29%
COc1ccc(C(=O)NCCn2cc(SCC(=O)Nc3ccc(F)cc3)c3ccccc32)cc1 -4.15%
Cc1ccc2c(=O)c(C(=O)c3ccccc3)cn(CC(=O)Nc3ccccc3C)c2n1 -15.5%
COc1cc(NC(=O)Cn2cnc3sc(C)c(S(=O)(=O)N4CCC(C)CC4)c3c2=O)cc(OC)c1OC -13.5%
O=C(COc1ccccc1F)Nc1ccc2nc(SCC(=O)N3CCCC3)sc2c1 -5.73%
Cc1nc(-c2ccc(S(=O)(=O)NCc3ccc(OC(C)C)cc3)cc2)co1 -30.3%
Cc1nn(CCCC(=O)Nc2cccc(C(F)(F)F)c2)c(=O)c2nn(-c3ccccc3)c(C)c12 -11.8%
CCN1CCN(C(=O)N[C@@H](C(=O)N[C@@H]2C(=O)N3[C@@H]2SC(C)(C)[C@H]3C(=O)O)c2ccccc2)C(=O)C1=O -17.1%
CCn1cc(C(=O)NCCc2ccc(Cl)cc2)c(=O)c2cc(S(=O)(=O)N3CCCCCC3)ccc21 -11.7%
COc1cccc2c1C(=O)c1c(O)c3c(c(O)c1C2=O)C[C@@](O)(C(C)=O)C[C@@H]3O[C@H]1C[C@H](N)[C@H](O)[C@H](C)O1 -15.4%
CCOc1ccc(C(=O)c2cn(CC(=O)Nc3ccc(F)c(F)c3)c3cc4c(cc3c2=O)OCCO4)cc1 6.72%
CSc1ncc(Cl)c(C(=O)Nc2c(C(=O)c3ccc(C)c(F)c3)oc3ccccc23)n1 -9.95%
COc1cccc(NC(=O)CCc2nc(-c3cccs3)no2)c1 -10.2%
COc1ccc(-c2noc(CSc3nc(N)cc(=O)[nH]3)n2)cc1 -11.8%
Cc1cccc(N2CCN(c3ccc(NC(=O)c4ccccc4)cc3C(=O)O)CC2C)c1 (stereo not drawn) -7.8%
Cc1cccc(NC(=O)c2ccc3nc(CCc4ccccc4)oc3c2)c1C -22.7%
COc1cccc(CNC(=O)C(Cc2ccccc2)NS(=O)(=O)c2ccc3c(c2)oc(=O)n3C)c1 (stereo not drawn) -12%
Cc1cccc(OC(=O)c2cc(-c3ccc4c(c3)OCCO4)on2)c1C 4.98%
Cc1cc2[nH]c(=O)c(=O)[nH]c2cc1S(=O)(=O)Nc1ccc(OC(F)(F)F)cc1 8.78%
O=C(Nc1ccccc1)c1ccc2c(O)c(S(=O)(=O)c3ccc(Cl)cc3)c(=O)[nH]c2c1 -14.3%
CCCS(=O)(=O)N1CCC(N2CCN(Cc3ccc(F)cc3)C(=O)C2=O)CC1 -19.1%
COc1ccc(-c2noc(-c3nnn(-c4ccc(C(C)C)cc4)c3C)n2)cc1OC -7.89%
Cc1cc(Nc2cccc(Cl)c2)nc2ccc(NC(=O)c3cccc(N(C)C)c3)cc12 -2.62%
CCOC(=O)c1ccc(NC(=O)CN2Cc3ccccc3C2=O)cc1 -10.6%
COc1ccccc1C(=O)Nc1onc2c1CCCC2 -6.44%
CCOc1ccccc1C(=O)Nc1ccc2nc3c(c(Nc4ccc(OC)c(OC)c4)c2c1)CCCC3 -7.32%
O=C(NCc1ccc(F)cc1)c1ccc2c(c1)nc1n2CCCCC1 -22.8%
Cc1ncc(CO)c2c1Oc1nc(-c3ccc(F)cc3)nc(SCc3ccc(F)cc3Cl)c1C2 -14.1%
O=S(=O)(c1ccc2nc(Nc3cccc(F)c3)ccc2c1)N1CCCC1 -20.5%
CCOc1ccc(-c2cccc(NS(=O)(=O)c3ccccc3C(F)(F)F)c2)nn1 -11.9%
Cc1ccc(NC(=O)Cn2cc(C(=O)c3ccco3)c3ccccc32)cc1 -21.8%
Cc1ccc(S(=O)(=O)NCC(Nc2cccc(Cl)c2)c2ccccc2)cc1 (stereo not drawn) -33%
Cc1ccccc1Cn1c2ccccc2c2cnn(CC(=O)N3CCC(C)CC3)c(=O)c21 -38%
CCn1cc(C(=O)N2CCN(c3ccc(OC)cc3)CC2)c2cc(OC)c(OC)cc2c1=O -11.2%
CCOc1ccccc1C1C(C(=O)Nc2ccccc2)=C(C)Nc2c(C(=O)Nc3ccc(F)cc3)cnn21 (stereo not drawn) -13.4%
COc1ccc(-c2cc3nccc(-c4cc(Cl)c(C)cc4O)n3n2)cc1 -14%
CCn1c(C(=O)N2CCCC(C(=O)N3CCN(c4ccccc4)CC3)C2)cc2sccc21 (stereo not drawn) -10.7%
CCc1ccc(NC(=O)N2CCC(N3CCN(Cc4ccc(C)cc4)C(=O)C3=O)CC2)cc1 -11%
O=c1cc(-c2ccccc2)n2c(SCc3ccc(Br)cc3)nnc2[nH]1 -4.78%
CCOc1ccccc1NC(=O)CSC1=Nc2ccccc2C2=NC(CC(=O)NCc3ccc4c(c3)OCO4)C(=O)N12 (stereo not drawn) -15.9%
Cc1nn(CC(=O)NCCc2ccccc2)c(=O)c2c1sc1ccccc12 -30.5%
O=C(Cc1ccccc1)Nc1nnc2n1CCS2 -23.4%
CCN(Cc1ccccc1)Cc1c(O)ccc2oc(C)c(C(=O)Nc3ccccc3C)c12 1.95%
CC(C)(C)c1ccc(C(=O)N2CCN(CCc3ccccn3)CC2)cc1 -14.2%
CC(=O)N1c2ccc(S(=O)(=O)N(C)CC(=O)N(Cc3ccccc3)C(C)C)cc2CC1C (stereo not drawn) -17.5%
CCC(C)NC(=O)Cn1c(=O)n(-c2ccc(C)c(C)c2)c(=O)c2c(C)c(C(=O)N(CC)CC)sc21 (stereo not drawn) -15%
Cc1ccc(S(=O)(=O)NCC(c2ccc(N(C)C)cc2)N2CCc3ccccc32)cc1 (stereo not drawn) -15%
Cc1cc2nc(N(Cc3cccnc3)C(=O)c3ccc(Cl)s3)sc2cc1C 0.324%
CCCCSCCCNC(=O)c1c[nH]c2ccc(S(=O)(=O)Nc3cccc(OC)c3)cc2c1=O -2.69%
COc1ccc(-n2ccnc(NCCc3ccc(Cl)cc3)c2=O)cc1OC -8.06%
COc1ccccc1CN1C(=O)C(=O)c2cccc(C)c21 -26.9%
COc1ccc2c(c1)c(=O)c(C(=O)c1ccccc1)cn2CC(=O)Nc1ccc2c(c1)OCO2 -11%
COc1ccc2c(CNCCc3ccc(SC)cc3)c(C(=O)O)n(Cc3ccc(F)cc3)c2c1 -16%
COc1ccc(Cn2cc(S(=O)(=O)c3ccc(C)cc3)c(=O)c3cc(F)ccc32)cc1 -15.4%
Cc1nc(-c2ccc(S(=O)(=O)Nc3cc(Cl)ccc3C)cc2)co1 -10.6%
COc1ccc(CCNC(=O)c2ccc3c(c2)CCN3S(C)(=O)=O)cc1OC -8.71%
Cc1ccc(CNC(=O)CCc2cn(C)c3ccccc23)cc1 -8.58%
NS(=O)(=O)c1ccc(CCNC(=O)C2CCN(c3ncnc4c3nc3n4CCCCC3)CC2)cc1 -24.2%
CCC(Sc1nc2c(sc3ccccc32)c(=O)n1CCc1ccc(OC)c(OC)c1)C(=O)N(CC)CC (stereo not drawn) -12.4%
CCC(CC)C(=O)Nc1nnc(S(=O)(=O)N2CCCCCC2)s1 -18.8%
CCS(=O)(=O)c1ncc(Cl)c(C(=O)N2CCN(c3ccc(OC)cc3)CC2)n1 -14.6%
Cc1cccc(CN2C(=O)c3ccccc3Sc3ccc(C(=O)NCc4ccco4)cc32)c1 -0.0203%
CCOc1ccc(NC(=O)c2oc3ccccc3c2NC(=O)COc2cccc(OC)c2)cc1 -12.2%
O=c1c2ccccc2nc(/C=C/c2cccc3ccccc23)n1-c1ccc(F)cc1F -15%
COc1ccc(CNC(=O)Cc2c(C)c3cc4c(C)coc4cc3oc2=O)cc1OC -10.6%
COc1ccc(C2c3[nH]c4ccccc4c3CCN2C(=O)CCC2CCCC2)cc1 (stereo not drawn) -8.03%
CCN(CC)c1ccc(NC(=O)c2cc(C)nc3c2c(C)nn3-c2ccc(C)cc2)c(C)c1 -21.6%
CC(Sc1nccn1C)C(=O)Nc1ccccc1C#N (stereo not drawn) -14.5%
Cc1cn2c(=O)cc(COC(=O)c3ccc(NC(=O)c4ccc(F)cc4)cc3)nc2s1 -9.17%
CCOC(=O)c1ccc(NC(=O)c2cnn3c(=O)c4c(n(CC)c23)CCN(Cc2ccc(OC)cc2)C4)cc1 -27.4%
COC(=O)c1ccc(Nc2ncnc3c2cnn3C)cc1 -15.3%
CC1CCN(S(=O)(=O)N2CCC(C(=O)NCc3ccccc3Cl)CC2)CC1 -24.3%
O=C(CNC(=O)c1ccccc1)OCc1cc(=O)n2nc(C3CCCCC3)sc2n1 -3.42%
COc1ccc(N2CCN(C(=O)CSc3nc(-c4ccc(C(C)C)cc4)no3)CC2)cc1 -15.4%
Cc1ccc2sc(N(Cc3cccnc3)C(=O)CCS(=O)(=O)c3ccccc3)nc2c1C -5.31%
CCN(CC)C(=O)c1sc2c(c1C)c(=O)n(Cc1ccccc1)c(=O)n2Cc1ccccc1C -3.18%
Cc1ccsc1CCN1C(=O)N(c2ccccc2)C(=O)C1CC(=O)Nc1ccc(Cl)cc1 (stereo not drawn) -30.3%
COc1ccc(-c2nc3scc(CCNS(=O)(=O)c4ccc(Oc5ccccc5)cc4)n3n2)cc1OC -1.45%
CCN(CC)C(=O)c1sc2c(c1C)c(=O)n(-c1ccc(C)c(C)c1)c(=O)n2Cc1cc(=O)n2ccccc2n1 -1.8%
Cc1ncc([N+](=O)[O-])n1CC(C)O (stereo not drawn) -7.96%
COc1ccc(-c2nc3scc(CCNS(=O)(=O)c4ccc5c(c4)OCCO5)n3n2)cc1OC -12.1%
O=C(NCc1ccc(F)cc1Cl)c1cc(=O)[nH]c2ccc(S(=O)(=O)N3CCCCC3)cc12 0.543%
